# Assay results as given in article PMC12136788.
# This is one part of the list.
# T1: UNK ZnF1-3 (human, UniProt Q9C0B0 31-174)
# T1 sequence: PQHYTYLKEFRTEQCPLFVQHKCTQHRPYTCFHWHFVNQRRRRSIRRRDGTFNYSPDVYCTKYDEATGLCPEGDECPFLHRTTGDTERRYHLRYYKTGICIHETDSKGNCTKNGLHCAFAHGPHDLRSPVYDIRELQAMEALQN
# B1: 113503590_113505108_642_3pUTR_ENSG00000114573_ENST00000273398|human|control|control (ssRNA)
# RNA: GGGAGUUCUACAGUCCGACGAUCACCUUCAAAUUCAAGCUCCAAGACAACAUCAGAGGUAUCAUAAUUCCCAGGUGGAGCAAUGUAAGUUACAGUUCCUCUGUUUCGUGGGGGUAACAUGAUUUUGUGUUUGAUAAGCGAGUUCAACAGAGGAUUGAGCAUCA
# B2: chr1:43168039:43168040:+_ENSMUSG00000010290_ENSMUST00000010434|mus_mus|FALSE|FALSE (ssRNA)
# RNA: GGGAGUUCUACAGUCCGACGAUCCUGUUGAGUGUCAUUAUUAUUGUGCUCCAUUUUAUGGUUCACAGGCAAAUUGGAAAACAACACUAGGGGUGAAAUCCUCGACGAGGAAUUUGGUGAUUUCCAGAAGGCAUCACUGGUGGACAACAGAGGAUUGAGCAUCA
# B3: chr3:148522152:148522153:-_ENSMUSG00000028184_ENSMUST00000106128|mus_hu|motif|central (ssRNA)
# RNA: GGGAGUUCUACAGUCCGACGAUCUGGUGAGGUAUCAUGGUAGUUGGCAUAGUUAAUUAUGGCCUCGCCACUCUUAAUUCGGGUCCUCAAGUCAAAUUUCACAAUAUUCCUCGUUCUUUCUUUGUUAAAGAAGACAGCACCAUCCAACAGAGGAUUGAGCAUCA
# B4: 35904860_35906044_3262_CDS_ENSMUSG00000031529_ENSMUST00000033929|mouse|control|control (ssRNA)
# RNA: GGGAGUUCUACAGUCCGACGAUCAGUUCCCUGAUUCACACAGUGAAAAGUCAAAUAUGGAUUGGUUCCUUGUUGUCCACCUAAAAGUCUUUCAACACCCUUGAUCAACUUGUGGCGGUGUCCAUAUGCAUUGAUGCCUAUUUCCAACAGAGGAUUGAGCAUCA
# B5: chr8:54879716:54879717:-_ENSG00000187735_ENST00000521604|hu_hu|FALSE|FALSE (ssRNA)
# RNA: GGGAGUUCUACAGUCCGACGAUCCAAUCUCACUCAUGACAGAAAAAGUCAGCAAAUAAGACUUGGGACAAAAUUAUUUUCUAUCAGUCUCCACAUGGAAAGACCACAGCUUUAAUGAAUUAUACAAUCCUUAAGAUUAAUCCUCAACAGAGGAUUGAGCAUCA
# B6: chr1:156288723:156288724:-_ENSG00000163468_ENST00000295688|hu_hu|FALSE|FALSE (ssRNA)
# RNA: GGGAGUUCUACAGUCCGACGAUCUCCUUUCUUGUAUUCCAGAGAAGAAUCCAGCAGCACAAUGCGAGGGUUCUUGAUAUAGCGCCGCAUACGUGGAUGGGUCACAUCCUUGUUAAUCAUGACUCCACGCAAGACACAGGAGUCCAACAGAGGAUUGAGCAUCA
# B7: chr12:111929536:111929537:-_ENSMUSG00000021270_ENSMUST00000094361|mus_hu|motif|central (ssRNA)
# RNA: GGGAGUUCUACAGUCCGACGAUCAGCUCAGAACACUUCAAUAACAAGAUUUGGUCUACUUAGGCAUCCGGCUUGACAGCGGAACACUUUAGACCACAAAGUUAACAUCAUGUUACAUACGUCUUACAGUGCACGUUACCCCAACAACAGAGGAUUGAGCAUCA
# B8: chrX:50352303:50352304:+_ENSMUSG00000025630_ENSMUST00000026723|mus_mus|motif|central (ssRNA)
# RNA: GGGAGUUCUACAGUCCGACGAUCCGGCAUAAUGAUUAGGUAUACAAAACAAAUCUAGGUCAUAACCUGGUUCAUCAUCGCGGAUCACGACGCUGGGACUGCGGGUCGGCAUGACGGGACCGGUCGGCUCGCGGCAAAAAGCGGCAACAGAGGAUUGAGCAUCA
# B9: chr4:76733432:76733433:+_ENSG00000138768_ENST00000264904|hu_hu|FALSE|FALSE (ssRNA)
# RNA: GGGAGUUCUACAGUCCGACGAUCGCCAAGAGCACCAAGAGAUCAUCUUGUUCUUUUUUAGAAUCUGUAAUUUCCAACUCUAGUUUGUCUUUCUCAGUUUGUAAAAUGGCAAUGGUACUAUUAGAUGAAUCCAGCUGCUCUUUACAACAGAGGAUUGAGCAUCA
# B10: chr11:46405157:46405158:+_ENSG00000110492_ENST00000395566|hu_hu|hu_hu_hu_mus_False|18_48 (ssRNA)
# RNA: GGGAGUUCUACAGUCCGACGAUCCCCUCCCCACUUUGGGCACUUGGUGUGGGCGUGAGAGGACAGGCGUGAUUGACAGAGCUGACAAGCAGACAGAAGGCACUGGUGGGUUAUAUCUCGGGCCUGGGGGAGAGGAGGGCUCCGCAACAGAGGAUUGAGCAUCA
# B11: 46892552_46892672_1950_3pUTR_ENSMUSG00000032905_ENSMUST00000035648|mouse|control|control (ssRNA)
# RNA: GGGAGUUCUACAGUCCGACGAUCAAGCCCCGGAGCCUGAGGCAGGUCAGCCUGAGUGACACAGUCAAUCUCAAAAGCAGGACAACAACAGAGUAGCAUUUUACUGUAAUUUUUCCCCCAGAGGUGAGACAAUCUCACUCUGUACAACAGAGGAUUGAGCAUCA
# B12: chr9:13223689:13223690:-_ENSG00000107186_ENST00000319217|hu_hu|FALSE|FALSE (ssRNA)
# RNA: GGGAGUUCUACAGUCCGACGAUCCUCUUGAACAAAUAUUCCCAGCUCUCCUCUGUUUUCACUUCUUAGUCCCACAACACUAAACCCAAGGCCUCCAGAUGGAGGUUUGAGGAGCUCAAAAACUUCUACAUGGCGACCCUGGGCCAACAGAGGAUUGAGCAUCA
# B13: chr5:21408736:21408737:-_ENSMUSG00000042453_ENSMUST00000161356|mus_mus|FALSE|FALSE (ssRNA)
# RNA: GGGAGUUCUACAGUCCGACGAUCGUUGACAGCAUUAUAAAUGGUGGCUUCAUGGAACUGGAACGGGGAGCAGCCAAUGCUAUUGGAAGAGGAAGGUAGGCACUGGGUCUGCACGAGCUGCCAGGAAUCGGACCUUGCAUCCUUCAACAGAGGAUUGAGCAUCA
# B14: chr17:65740002:65740003:+_ENSG00000130935_ENST00000581375|hu_hu|hu_hu_hu_mus_False|38_38 (ssRNA)
# RNA: GGGAGUUCUACAGUCCGACGAUCAACAAAUCUUUCUUCCCUGGACGAACAGGAAGAUUCAUAUUAAAAAAAAUAUAUAUCCAUCAAGUUAGGUGUGUAAUAUCAGACUUUACUCCCAGCACUUUGGGAGGUGGAUCUCUGAGUCAACAGAGGAUUGAGCAUCA
# B15: chr4:71639242:71639243:+_ENSG00000018189_ENST00000226328|hu_mus|motif|central (ssRNA)
# RNA: GGGAGUUCUACAGUCCGACGAUCUCCAUCCCCUUCACUACCUUUACUACUGUUUCCAUCUUUGAGAUACAUCGAAAAAUCGGUAACUCCAACCUGAGAGUCCAGGUCUUCUCCUUUCAUGCAGAAAUUGGCAUCGAUGACAUUCAACAGAGGAUUGAGCAUCA
# B16: chr4:48249827:48249828:-_ENSMUSG00000028343_ENSMUST00000030028|mus_mus|FALSE|FALSE (ssRNA)
# RNA: GGGAGUUCUACAGUCCGACGAUCCUCAAAAAUUGGAUGCAACAUCUGGCUGAAACGACACCAGUCAGCAUAAAAAUUUACUAAAGCAACAUCAGCAUUAUUUAAAAUUUCAUCUAUAUUCUCUGAAUCAAGACUUGCUAUUUCCAACAGAGGAUUGAGCAUCA
# B17: chr17:60770872:60770873:+_ENSG00000011028_ENST00000303375|hu_hu|hu_hu_hu_mus_True|38_88 (ssRNA)
# RNA: GGGAGUUCUACAGUCCGACGAUCUCUUUAAAAAAAAAAAAAAAAAGUUUAAAAACAAUAGCACAUUUCGAGAAUCAAGAACUACAAUAGAGGGUCCAUGUCUUCGAUUUGUUCACAUCGUCCUGCACUGGGACACGGGGACUGCAACAGAGGAUUGAGCAUCA
# B18: chr2:160775391:160775392:-_ENSMUSG00000057133_ENSMUST00000039782|mus_mus|motif|central (ssRNA)
# RNA: GGGAGUUCUACAGUCCGACGAUCGAUGAGUCCAGGAGACACUCCUGGGAUGAGAAAUGGGUUGAAAGCCACAGGACGGCGGGUAGUUAUUGUGGGUUCUGACUGAUCAGAAAACGGACUAGGGCCAGGCUUGUCGUCUACCAGCAACAGAGGAUUGAGCAUCA
# B19: chr11:69795057:69795058:+_ENSMUSG00000018559_ENSMUST00000108593|mus_mus|FALSE|FALSE (ssRNA)
# RNA: GGGAGUUCUACAGUCCGACGAUCAUAUCGAACAGUCUGAUACUGAAUUACCGUGCGGAUCUGCCUCCGCAAAAGGUAAAUAAAGAAGCUCCAGAGCUUGGCGGCGAAGGCCACGAACGUGCGCAGCCCCAGCAGACACUGCGUCAACAGAGGAUUGAGCAUCA
# B20: chr3:97503841:97503842:+_ENSG00000113966_ENST00000463745|hu_mus|FALSE|FALSE (ssRNA)
# RNA: GGGAGUUCUACAGUCCGACGAUCAUCUGGGUGAUUCAGAAGGGUAUCAAGCUCUUCUUUGGCCACAACCAUUCUUAACUUAUCACUACUAUCAAUGACAAAAAUAAUGGCUUGUCCAUCUUUAUAAUAGUGUUCCCAGAGAUUCAACAGAGGAUUGAGCAUCA
# B21: chr16:94690093:94690094:+_ENSMUSG00000040785_ENSMUST00000117648|mus_hu|mus_mus_mus_hu_True|8_8 (ssRNA)
# RNA: GGGAGUUCUACAGUCCGACGAUCGGGCUGGGAUGACGGACACACAGCCUCGAUUCCAGGGGGAAAAAGUCUUAGUCGAUACUAAUUAAAAAGUGUUAAUGAUUUUUGAAAAUCAGAUUACAUCUAUUUGAAUCAUAAAGCAAACAACAGAGGAUUGAGCAUCA
# B22: chr4:25749455:25749456:-_ENSG00000091490_ENST00000264868|hu_hu|hu_hu_hu_mus_False|38_68 (ssRNA)
# RNA: GGGAGUUCUACAGUCCGACGAUCGCACUAUGACCUCUAGAAAAAUCCACAGGGGGAAAAAAUGUAAACCAAUUUACAAUGUUAUCGCCUUCCCUGUAUUUCCAGGCUUUGUCUCAAGGCUCCUUCUAGCUGCUGGAUUUGGGACAACAGAGGAUUGAGCAUCA
# Biological target: T1, UNK ZnF1-3
# Test: nsRBNS (natural sequence RNA bind-n-seq); RBNS binding buffer (assumed for nsRBNS): 25 mM Tris pH 7.5, 150 mM KCl, 3 mM MgCl2, 0.01% Triton X-100, 500 ug/ml BSA, 20 U/ml SUPERase-In, 4 C; UNK is unkempt and MSI1 is Musashi-1; names of the RNAs are library labels; protein concentration not given here; high values mean tight binding
row,Binder,binding signal
1,B1,1.35 enrichment R
2,B2,0.973 enrichment R
3,B3,0.632 enrichment R
4,B4,0.69 enrichment R
5,B5,0.978 enrichment R
6,B6,0.904 enrichment R
7,B7,0.761 enrichment R
8,B8,0.675 enrichment R
9,B9,0.953 enrichment R
10,B10,2.66 enrichment R
11,B11,1.34 enrichment R
12,B12,0.981 enrichment R
13,B13,1.66 enrichment R
14,B14,1.35 enrichment R
15,B15,1 enrichment R
16,B16,1.71 enrichment R
17,B17,3.19 enrichment R
18,B18,1.35 enrichment R
19,B19,0.482 enrichment R
20,B20,0.806 enrichment R
21,B21,0.671 enrichment R
22,B22,1.04 enrichment R
